# Laboratory results as given in PubChem BioAssay AID1240 (Sanford-Burnham Center for Chemical Genomics, 2008).
# Values joined by “and” are separate entries in the source; they are usually repeats but may differ in a detail not shown here. Equal entries are not always repeated. Screen size: about 50,000 compounds; about 800 (1.6%) showed an effect of 50% or more. The list shows a part of the results.
# Molecular target: Bcl-2-like protein 10 (Homo sapiens) (UniProt Q9HD36)
# Experiment: Phenotype converters, Bcl-B/TR3 peptide binding displacement, primary biochemical FP (AID 1240);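 note: 0% = Bcl-B with tracer peptide and DMSO and 100% = tracer peptide lacking Bcl-B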
# Details: GST-Bcl-B / FITC-TR3 peptide fluorescence polarization; stronger effect = higher value; compound at 3.75 mg/L
# Sequence of UniProt Q9HD36 (Q9HD36 whole entry, looked up): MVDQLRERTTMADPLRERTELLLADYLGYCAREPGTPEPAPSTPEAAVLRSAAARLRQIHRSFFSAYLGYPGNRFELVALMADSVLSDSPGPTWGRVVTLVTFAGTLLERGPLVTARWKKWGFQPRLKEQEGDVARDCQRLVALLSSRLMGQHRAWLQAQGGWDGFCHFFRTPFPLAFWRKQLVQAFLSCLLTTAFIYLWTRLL
row,SMILES,displacement
1,CCOC(=O)Cc1nnc(NC(=O)Nc2ccc(Cl)cc2)s1,6.5%
2,NC(CC(=O)O)c1ccccc1 (centres undefined),0.7%
3,Cc1ccc(Nc2cc(=O)n(C)c(=O)[nH]2)cc1C,1.6%
4,CSc1nc(C)c2c(n1)OC(CN1C(=O)c3ccccc3C1=O)C2 (centres undefined),1.9%
5,O=C(COc1ccc([N+](=O)[O-])cc1)Nc1ccc(I)cc1Cl,24%
6,O=C(O)CCCN1C(=O)/C(=C\c2ccc(-c3ccc(Br)cc3)o2)SC1=S,-65.6%
7,CCCc1[nH]n(-c2nc3ccccc3s2)c(=O)c1C=NCCCO,-15.5%
8,CN(C)c1ccc(/C=C/C=N/NS(=O)(=O)c2ccc(C(C)(C)C)cc2)cc1,9.2%
9,O=C1CC(c2ccccc2)CC2=C1C(c1ccc(F)c(F)c1)Nc1ccccc1N2 (centres undefined),-1.9%
10,COc1cccc(OCCNC(=O)Cc2cccc3ccccc23)c1,12%
11,CC1CCN(C(=O)c2ccc(I)cc2)CC1,10.2%
12,Cc1ccc(NC(=O)CSc2nnc(NC(=O)CN3CCCCC3)s2)cc1,-6.7%
13,O=C(Nc1ccc2oc(-c3cccc4c(Br)cccc34)nc2c1)c1ccco1,-22.2%
14,CCC(=O)N/C(N)=N/c1nc2ccccc2s1,6.3%
15,O=C(CCCN1C(=O)/C(=C\c2cccc(Br)c2)SC1=S)Nc1ccc(F)cc1,13.2%
16,CCc1ccc(OCC(=O)Nc2ccc(O)c(-c3nc4cc(C)ccc4o3)c2)cc1,7.4%
17,COc1ccc(-n2c(/C=C3/C(=O)N(C)c4ccc(C)cc43)nc3ccccc3c2=O)cc1,-8.4%
18,Cc1cc(C)c(NC(=S)NC(NC(=O)c2ccccc2)C(Cl)(Cl)Cl)c(C)c1 (centres undefined),-0.7%
19,O=C1NC(=S)S/C1=C\c1ccc(OC(=O)c2ccccc2I)cc1,9.6%
20,Cc1ccc(S(=O)(=O)N2c3ccccc3C(C)CC2(C)C)cc1 (centres undefined),13.2%
21,O=C(NN1C(=O)/C(=C/c2ccc(Cl)cc2)SC1=S)c1cccc(O)c1,-14.2%
22,O=C(Nc1ccccc1)Nc1nnc(Cc2ccc(F)cc2)s1,11.1%

row,SMILES,displacement
1,CC(=O)N/N=C/c1cc(C)n(-c2cccc(Cl)c2)c1C,-19.5%
2,O=C(c1cccc(F)c1)N1CCN(C(=O)c2cccs2)CC1,-30.1%
3,CN(CCO)c1nc(-c2ccccc2)c2cc(Cl)ccc2n1,8.1%
4,O=C1C(=O)N(c2nc3ccccc3s2)C(c2cccc([N+](=O)[O-])c2)/C1=C(/O)c1ccccc1 (centres undefined),-4.8%
5,O=C(Nc1ccc(Oc2ccccc2)cc1)c1cc2ccccc2oc1=O,1.6%
6,COc1ccc(C2CC(C(F)(F)F)n3ncc(C(=O)Nc4cc(Cl)ccc4O)c3N2)cc1OC (centres undefined),-2.9%
7,COc1cc(C(=O)n2nc(C)c(Sc3ccccc3)c2C)cc(OC)c1OC,-15.6%
8,Cc1ccc(Nc2nc(-c3ccc([N+](=O)[O-])cc3)cs2)cc1C,1.5%
9,Cc1ccc(S(=O)(=O)NC(=O)Nc2cc(C(C)C)c(O)c(C(C)C)c2)cc1,-17.7%
10,O=C1C=CC(=O)N1c1cccc([N+](=O)[O-])c1,11.4%
11,CCCC(=O)NC(Oc1ccc(/C=C2\SC(=S)N(CCCOC)C2=O)cc1)C(Cl)(Cl)Cl (centres undefined),9%
12,O=C(N=Nc1c(O)n(CN2CCCCC2)c2ccc(Br)cc12)c1ccncc1,-7%
13,CCOC(=O)C(=O)Nc1ccccc1C(=O)Nc1ccccc1Br,-17.9%
14,O=C(c1ccccc1Cl)N1CCN(C(c2ccccc2)c2ccccc2)CC1,8%
15,COc1ccc(/C=C(/NC(=O)c2ccc(C(C)(C)C)cc2)C(=O)N2CCCC2)cc1OC,-5.5%
16,COc1cc(OC)cc(C(=O)N2CCN(c3ccc([N+](=O)[O-])cc3Cl)CC2)c1,1.5%
17,O=C(N/N=C/c1ccc(O)cc1)c1cc(C2CC2)[nH]n1,-10.1%
18,O=C(O)C1CC=CCC1C(=O)NCCc1ccc(Cl)cc1 (centres undefined),2.2%
19,COc1ccc(-c2csc(/C(C#N)=C/c3ccc(C)o3)n2)cc1OC,-31.7%
20,COC(=O)CN(c1ccccc1)S(C)(=O)=O,17.5%
21,CC(C(=O)Nc1ccc(-c2nc3ccccc3o2)cc1)(c1ccccc1)c1ccccc1,-5.1%
22,Cc1ccnc(NC(=O)Cc2ccc(Br)cc2)c1,8.8%

row,SMILES,displacement
1,Cn1c(O)c(N=NC(=O)COc2ccc3ccccc3c2)c2cc(Br)ccc21,2.3%
2,Cc1cc(C)cc(N=CC2=C(O)CC(c3ccccc3)CC2=O)c1 (centres undefined),84.1%
3,Cc1ccc(N(C(=O)COc2ccc(Cl)cc2Cl)C2C=CS(=O)(=O)C2)cc1 (centres undefined),-6.4%
4,O=C(Nc1ccccn1)c1ccc(S(=O)(=O)c2ccccc2)cc1,-14.1%
5,Cc1c(O)ccc2c3c(c(=O)oc12)CCC3,12.3%
6,O=C(Nc1ccc(Cl)cc1)C1C2C3CCC(C3)C12 (centres undefined),-3.9%
7,COC(=O)CN(c1ccc(C)cc1)S(=O)(=O)c1ccc(F)cc1,4.5%
8,O=C(Nc1ccc2c(c1)OCO2)c1cc2n(n1)C(C(F)(F)F)CC(c1ccc(Cl)c(Cl)c1)N2 (centres undefined),4.2%
9,Clc1cccc(-c2nnc(-c3ccc4c(c3)OCO4)o2)c1,14.4%
10,O=C(CC1(O)C(=O)Nc2ccc(Br)cc21)c1cccc2ccccc12 (centres undefined),3.8%
11,O=C(Nc1cccc(Cl)c1Cl)c1ccc([N+](=O)[O-])cc1,-11.1%
12,O=C(N/N=C1\CC2CCC1C2)c1ccc(Cl)cc1Cl (centres undefined),-1.4%
13,N#Cc1conc1-c1ccc(Br)cc1,16.4%
14,C=CCn1c(-c2ccco2)n[nH]c1=S,-10.2%
15,CCOC(=O)c1c(NC(=O)c2ccncc2)sc2c1CC(C)(C)OC2,-5.4%
16,CCN(CC)S(=O)(=O)c1ccc(NC(=O)c2ccc(OC)cc2)cc1,-0.9%
17,CCOc1ccc(CSc2ncn[nH]2)cc1,5.7%
18,Cc1ccc2ccccc2c1CSCC(=O)Nc1ccccc1,5.4%
19,COc1ccc(C2=C/C(=C\c3c(OC)ccc4ccccc34)C(=O)O2)c(OC)c1,9.6%
20,Cc1cc(/C=C2\C(=O)NC(=S)N(c3ccc(Br)cc3)C2=O)c(C)n1C,-2.4%
21,O=C1CC(c2ccccc2)CC2=C1C(c1cc(F)ccc1F)Nc1ccccc1N2 (centres undefined),-2.2%
22,COc1ccc(N2C(=O)NC(=O)/C(=C/c3cn(CCOc4ccccc4OC)c4ccccc34)C2=O)cc1,87.6%

row,SMILES,displacement
1,Brc1ccc2ncnc(NCCN3CCOCC3)c2c1,-2.5%
2,CCCCCCCc1c(C)[nH]n(-c2nnc3c(n2)[nH]c2ccccc23)c1=O,-22.6%
3,COc1ccc(OC)c(C2NC(=S)NC(C)=C2C(=O)Nc2cc(Cl)ccc2OC)c1 (centres undefined),10.1%
4,O=C(COc1ccc(Cl)cc1Cl)Nc1ccc(Br)cn1,-2%
5,O=C(Nc1nc(-c2ccc3ccccc3c2)cs1)c1ccc(Cl)s1,-17.5%
6,CC(C)C(C(=O)O)N1C(=O)/C(=C/c2ccccc2O)SC1=S (centres undefined),0.9%
7,Cc1cc(C(=O)Nc2ccc(O)c(C(=O)O)c2)oc1C,-12.1%
8,CC1CN(Cc2ccccn2)CCC1=O (centres undefined),-12.2%
9,CC1(C)CC(CCN(Cc2ccccc2)C(=O)c2ccco2)(c2ccccc2)CCO1 (centres undefined),1.1%
10,O=C(Nc1cccc(C(F)(F)F)c1)C1CC2CCC1C2 (centres undefined),-10.9%
11,O=C1C2CC=CCC2C(=O)N1c1ccc(OCC(O)CN2C(=O)c3ccccc3S2(=O)=O)cc1 (centres undefined),-6.5%
12,COCCOC(=O)c1c(C)oc2ccc(OCc3c(F)cccc3Cl)cc12,6.9%
13,O=C(NCc1ccccn1)C(=O)Nc1ccc(Oc2ccccc2)cc1,7.1%
14,O=C(Cc1cccs1)Nc1cccc(/C=C/C(=O)c2ccccc2)c1,4.4%
15,COC(=O)c1cc(N2C(=O)C3C4C=CC(C5CC45)C3C2=O)ccc1Cl (centres undefined),10.5%
16,O=[N+]([O-])c1cccc(-c2nc(-c3ccccc3)c(-c3cccs3)[nH]2)c1,9.1%
17,Cc1ccc(C)c(OC2=NS(=O)(=O)c3ccccc32)c1,1.7%
18,Cc1nc(-c2ccccc2)nc2nc(-c3ccccc3)nc(C)c12,-5.5%
19,O=C(O)Cn1cc(/C=N\Nc2ccc([N+](=O)[O-])cn2)c2ccccc21,-10.8%
20,Cc1cn([C@H]2C[C@@H](O)[C@@H](CO)O2)c(=O)n(C)c1=O,-6%
21,COc1ccc(/C=C2\SC(=O)N(c3cccc(C)c3)C2=O)cc1,17.7%
22,COc1ccccc1N1CCN(C(=O)c2ccc(I)cc2)CC1,2.2%

row,SMILES,displacement
1,CCCCOC(=O)c1ccc(NC(=O)c2c(Cl)ccc(Cl)c2OC)cc1,-2.2%
2,CN(C1=NC(=O)/C(=C\C(Cl)=C\c2ccc([N+](=O)[O-])cc2)S1)c1ccc(O)cc1,15.5%
3,NC(=O)c1c(-c2ccc(Cl)cc2)csc1N,-11.9%
4,CCCNC(=O)c1nn2c(C(F)(F)F)cc(-c3ccccc3)nc2c1Cl,-5.4%
5,CCOC(=O)c1cnn2c(C(F)(F)F)cc(-c3ccc(OC)c(OC)c3)nc12,3.7%
6,O=C1CC(c2ccccc2)CC2=C1C(c1ccsc1)Nc1ccccc1N2 (centres undefined),7%
7,O=C1c2cccc3cccc(c23)C(=O)N1CCS(=O)(=O)OCC(F)(F)C(F)F,7.3%
8,CC(=O)C1=C(O)C(=O)N(CCCC(=O)O)C1c1ccc(I)cc1 (centres undefined),-6.7%
9,CC1=C(C(=O)c2ccccc2)C(c2ccc(F)cc2)NC(=O)N1 (centres undefined),0%
10,CCN(CC)c1ccc(N2C(=O)/C(=C/c3ccc4c(c3)OCO4)SC2=S)cc1,15%
11,CCN1CCn2c3c(c4cc(Br)ccc42)CCCC31 (centres undefined),-10.2% and -9.8%
12,CCn1ccnc1C(O)(c1ccccc1)c1ccccc1,-13.5%
13,CCOC(=O)C1=C(O)/C(=C/c2cccc([N+](=O)[O-])c2)N=C1C,129%
14,C=CCNS(=O)(=O)c1ccc(N2C(=O)c3ccccc3C2=O)cc1,10.9%
15,O=C1N/C(=N\N=C\c2ccccc2O)SC1Cc1cccc(C(F)(F)F)c1 (centres undefined),2.3%
16,CCCC(Nc1ccccn1)n1nnc2ccccc21 (centres undefined),7.6%
17,COc1ccc(/C=C/C(=O)c2ccc(Cl)cc2)cc1[N+](=O)[O-],1.5%
18,Cc1ccc(-c2nc(-c3cccnc3)no2)cc1[N+](=O)[O-],21.4%
19,Cc1ccc(S(=O)(=O)/N=C(\N)Nc2nc(C)c3ccccc3n2)cc1,10.1%
20,CC(=O)Nc1c(Br)cc(C23CC4CC(CC(C4)C2)C3)cc1Br,-14.5%
21,Oc1ccc(C2Nc3ccc4ccccc4c3C3C=CCC32)cc1 (centres undefined),40.2%
